Several values for one entry are separate records, joined by “and”; a condition that tells them apart may be missing. Equal entries are not always repeated. The full ranking holds about 2,900 compounds; the median of “IRF Lucia reporter activity, fold change vs agonist alone” is about 0.9, and the highest 2% start at about 2.8. This is one part of the list.
Tests used:
RAW-Dual [1] = test: IRF Lucia reporter activity, fold change vs agonist alone; cytotoxicity flag (confluency mask): not cytotoxic; higher = enhanced IRF activity
How it was run: (§1)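 Library stock was pin-tooled at 50 nL into 384-well plates of RAW-Dual macrophages (50,000 cells/well, DMEM), followed 1 h later by a PRR agonist, and the cells were kept at 37 °C, 5% CO2. Supernatant collected after 20 hours was read for IRF by QuantiLuc luminescence and for NF-κB by QuantiBlue absorbance at 620 nm. Reporter activity is fold change over agonist-alone wells, and a well counted as cytotoxic when its IncuCyte confluency was below 70% of agonist controls in both mask sets.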

RAW-Dual [2] = test: IRF Lucia reporter activity, fold change vs agonist alone; higher = enhanced IRF activity; conditions: agonist: MPLA (TLR4) […]
How it was run: as §1

RAW-Dual [3] = test: IRF Lucia reporter activity, fold change vs agonist alone; cytotoxicity flag (confluency mask): cytotoxic (confluency <70% of control); higher = enhanced IRF activity
How it was run: as §1

[4] = agonist: 3'3'-cGAMP (STING) 10 ug/mL
[5] = library stock concentration (final ~1000-fold dilution): 10 mM, cytotoxicity flag (confluency mask): not cytotoxic
[6] = library stock concentration (final ~1000-fold dilution): 10 mM, cytotoxicity flag (confluency mask): cytotoxic (confluency <70% of control)
[7] = library stock concentration (final ~1000-fold dilution): 2 mM, cytotoxicity flag (confluency mask): not cytotoxic

**Q.** What does the source list for `C=CCSCC=C` (library stock concentration (final ~1000-fold dilution): 10 mM)?
**A.** IRF Lucia reporter activity (RAW-Dual [1]; [4]): 1.01; IRF Lucia reporter activity (RAW-Dual [1]; agonist: LPS (TLR4) 0.1 ug/mL): 1.39

**Q.** For `C=CCSCC=C`, which “IRF Lucia reporter activity” value (RAW-Dual [2]; [5]) is on record?
**A.** 1.05

**Q.** What does the source list for `CCN1CC(CCN2CCOCC2)C(c2ccccc2)(c2ccccc2)C1=O.Cl.O` (stereo not given) (library stock concentration (final ~1000-fold dilution): 10 mM)?
**A.** IRF Lucia reporter activity (RAW-Dual [1]; [4]): 1.09; IRF Lucia reporter activity (RAW-Dual [1]; agonist: LPS (TLR4) 0.1 ug/mL): 1.45

**Q.** For `CCN1CC(CCN2CCOCC2)C(c2ccccc2)(c2ccccc2)C1=O.Cl.O` (stereo not given), which “IRF Lucia reporter activity” value (RAW-Dual [2]; [5]) is on record?
**A.** 1.11

**Q.** How did the “IRF Lucia reporter activity” value (RAW-Dual [1]; [4]) turn out when `CC(NC(=O)Cc1cc(F)cc(F)c1)C(=O)NC1C(=O)N(C)c2ccccc2-c2ccccc21` (stereo not given) (library stock concentration (final ~1000-fold dilution): 10 mM) was run?
**A.** 0.663

**Q.** And the “IRF Lucia reporter activity” value (RAW-Dual [1]; agonist: LPS (TLR4) 0.1 ug/mL)?
**A.** 1.05

**Q.** For `CC(NC(=O)Cc1cc(F)cc(F)c1)C(=O)NC1C(=O)N(C)c2ccccc2-c2ccccc21` (stereo not given), which “IRF Lucia reporter activity” value (RAW-Dual [2]; [5]) is on record?
**A.** 1.2

**Q.** With `C=CCNC1=C2CC(C)CC(OC)C(O)C(C)/C=C(\C)C(OC(N)=O)C(OC)/C=C\C=C(/C)C(=O)NC(=CC1=O)C2=O` (stereo not given) (library stock concentration (final ~1000-fold dilution): 10 mM) as the compound, how does the “IRF Lucia reporter activity” value (RAW-Dual [3]; [4]) read?
**A.** 0.888

**Q.** What about the “IRF Lucia reporter activity” value (RAW-Dual [3]; agonist: LPS (TLR4) 0.1 ug/mL) of the same compound?
**A.** 2.19

**Q.** With `C=CCNC1=C2CC(C)CC(OC)C(O)C(C)/C=C(\C)C(OC(N)=O)C(OC)/C=C\C=C(/C)C(=O)NC(=CC1=O)C2=O` (stereo not given) as the compound, how does the “IRF Lucia reporter activity” value (RAW-Dual [2]; [6]) read?
**A.** 2.09

**Q.** For `C1CCN2CC3CC(CN4CCCCC34)C2C1.O.O.O.O.O.O=S(=O)(O)O` (stereo not given), which “IRF Lucia reporter activity” value (RAW-Dual [2]; [5]) is on record?
**A.** 0.949

**Q.** Which results are given for `C1CCN2CC3CC(CN4CCCCC34)C2C1.O.O.O.O.O.O=S(=O)(O)O` (stereo not given) (library stock concentration (final ~1000-fold dilution): 10 mM)?
**A.** IRF Lucia reporter activity (RAW-Dual [1]; [4]): 0.932; IRF Lucia reporter activity (RAW-Dual [1]; agonist: LPS (TLR4) 0.1 ug/mL): 0.909

**Q.** What does the source list for `CCC(C)n1ncn(-c2ccc(N3CCN(c4ccc(OCC5COC(Cn6cncn6)(c6ccc(Cl)cc6Cl)O5)cc4)CC3)cc2)c1=O` (stereo not given) (library stock concentration (final ~1000-fold dilution): 2 mM)?
**A.** IRF Lucia reporter activity (RAW-Dual [1]; [4]): 0.82; IRF Lucia reporter activity (RAW-Dual [1]; agonist: LPS (TLR4) 0.1 ug/mL): 1.91

**Q.** Which “IRF Lucia reporter activity” value (RAW-Dual [2]; [7]) does the source give for `CCC(C)n1ncn(-c2ccc(N3CCN(c4ccc(OCC5COC(Cn6cncn6)(c6ccc(Cl)cc6Cl)O5)cc4)CC3)cc2)c1=O` (stereo not given) here?
**A.** 1.6

**Q.** `Cc1cccc(Nc2ccccc2C(=O)O)c1C` (library stock concentration (final ~1000-fold dilution): 10 mM) was tested. Which “IRF Lucia reporter activity” value (RAW-Dual [1]; [4]) did it give?
**A.** 1.06

**Q.** And the “IRF Lucia reporter activity” value (RAW-Dual [1]; agonist: LPS (TLR4) 0.1 ug/mL)?
**A.** 1.1

**Q.** Which “IRF Lucia reporter activity” value (RAW-Dual [2]; [5]) does the source give for `Cc1cccc(Nc2ccccc2C(=O)O)c1C` here?
**A.** 1.1

**Q.** Which results are given for `O=C(Nc1cc(C(F)(F)F)ccc1N1CCN(Cc2ccccn2)CC1)c1ccc(-c2ccncc2)o1` (library stock concentration (final ~1000-fold dilution): 10 mM)?
**A.** IRF Lucia reporter activity (RAW-Dual [1]; [4]): 0.738; IRF Lucia reporter activity (RAW-Dual [1]; agonist: LPS (TLR4) 0.1 ug/mL): 0.897

**Q.** For `COc1c(O)cc2oc3cc(O)c(CC=C(C)C)c(O)c3c(=O)c2c1CC=C(C)C` (library stock concentration (final ~1000-fold dilution): 10 mM), which “IRF Lucia reporter activity” value (RAW-Dual [1]; [4]) is on record?
**A.** 0.728

**Q.** And the “IRF Lucia reporter activity” value (RAW-Dual [1]; agonist: LPS (TLR4) 0.1 ug/mL)?
**A.** 0.723

**Q.** What does the source list for `CCCCc1nc(Cl)c(CO)n1Cc1ccc(-c2ccccc2-c2nnn[nH]2)cc1` (library stock concentration (final ~1000-fold dilution): 10 mM)?
**A.** IRF Lucia reporter activity (RAW-Dual [1]; [4]): 1.03 and 1.11; IRF Lucia reporter activity (RAW-Dual [1]; agonist: LPS (TLR4) 0.1 ug/mL): 1.32 and 1.15

**Q.** How did the “IRF Lucia reporter activity” value (RAW-Dual [1]; [4]) turn out when `Cc1nc2n(c(=O)c1CCN1CCC(c3noc4cc(F)ccc34)CC1)CCCC2O` (stereo not given) (library stock concentration (final ~1000-fold dilution): 2 mM) was run?
**A.** 0.941

**Q.** And the “IRF Lucia reporter activity” value (RAW-Dual [1]; agonist: LPS (TLR4) 0.1 ug/mL)?
**A.** 1.03

**Q.** `Cc1nc2n(c(=O)c1CCN1CCC(c3noc4cc(F)ccc34)CC1)CCCC2O` (stereo not given) was tested. Which “IRF Lucia reporter activity” value (RAW-Dual [2]; [7]) did it give?
**A.** 1.21

**Q.** With `C=CCn1c(=O)c2cnc(Nc3ccc(N4CCN(C)CC4)cc3)nc2n1-c1cccc(C(C)(C)O)n1` as the compound, how does the “IRF Lucia reporter activity” value (RAW-Dual [2]; [6]) read?
**A.** 0.0289

**Q.** For `C=CCn1c(=O)c2cnc(Nc3ccc(N4CCN(C)CC4)cc3)nc2n1-c1cccc(C(C)(C)O)n1` (library stock concentration (final ~1000-fold dilution): 10 mM), which “IRF Lucia reporter activity” value (RAW-Dual [3]; [4]) is on record?
**A.** 0.0179

**Q.** And the “IRF Lucia reporter activity” value (RAW-Dual [3]; agonist: LPS (TLR4) 0.1 ug/mL)?
**A.** 0.0367

**Q.** How did the “IRF Lucia reporter activity” value (RAW-Dual [1]; [4]) turn out when `Cc1nc(-c2nc(-c3ccc(OC(F)(F)F)cc3)no2)nn1Cc1cccc(N2CCC(S(C)(=O)=O)CC2)c1` (library stock concentration (final ~1000-fold dilution): 10 mM) was run?
**A.** 0.936

**Q.** And the “IRF Lucia reporter activity” value (RAW-Dual [1]; agonist: LPS (TLR4) 0.1 ug/mL)?
**A.** 0.78

**Q.** Which results are given for `c1cn2cc(-c3ccc4cn[nH]c4c3)nc(Nc3ccc(N4CCOCC4)cc3)c2n1` (library stock concentration (final ~1000-fold dilution): 10 mM)?
**A.** IRF Lucia reporter activity (RAW-Dual [1]; [4]): 0.179; IRF Lucia reporter activity (RAW-Dual [1]; agonist: LPS (TLR4) 0.1 ug/mL): 0.714

**Q.** Which “IRF Lucia reporter activity” value (RAW-Dual [2]; [5]) does the source give for `c1cn2cc(-c3ccc4cn[nH]c4c3)nc(Nc3ccc(N4CCOCC4)cc3)c2n1` here?
**A.** 0.88

**Q.** For `CCC(NC(=O)C(C)NC)C(=O)N1CC(O)CC1Cc1c(-c2[nH]c3cc(F)ccc3c2CC2CC(O)CN2C(=O)C(CC)NC(=O)C(C)NC)[nH]c2cc(F)ccc12` (stereo not given), which “IRF Lucia reporter activity” value (RAW-Dual [2]; [5]) is on record?
**A.** 0.519

**Q.** With `CCC(NC(=O)C(C)NC)C(=O)N1CC(O)CC1Cc1c(-c2[nH]c3cc(F)ccc3c2CC2CC(O)CN2C(=O)C(CC)NC(=O)C(C)NC)[nH]c2cc(F)ccc12` (stereo not given) (library stock concentration (final ~1000-fold dilution): 10 mM) as the compound, how does the “IRF Lucia reporter activity” value (RAW-Dual [1]; [4]) read?
**A.** 0.626

**Q.** What about the “IRF Lucia reporter activity” value (RAW-Dual [1]; agonist: LPS (TLR4) 0.1 ug/mL) of the same compound?
**A.** 0.632

**Q.** How did the “IRF Lucia reporter activity” value (RAW-Dual [3]; [4]) turn out when `NC1CCCN(c2c(Br)cnc3[nH]cc(NC(=O)C4CC4)c23)C1` (stereo not given) (library stock concentration (final ~1000-fold dilution): 10 mM) was run?
**A.** 0.494

**Q.** And the “IRF Lucia reporter activity” value (RAW-Dual [3]; agonist: LPS (TLR4) 0.1 ug/mL)?
**A.** 0.742

**Q.** With `CC(C)OC(=O)CCC/C=C\CC1C(O)CC(O)C1CCC(O)CCc1ccccc1` (stereo not given) as the compound, how does the “IRF Lucia reporter activity” value (RAW-Dual [2]; [5]) read?
**A.** 1.57

**Q.** What does the source list for `CC(C)OC(=O)CCC/C=C\CC1C(O)CC(O)C1CCC(O)CCc1ccccc1` (stereo not given) (library stock concentration (final ~1000-fold dilution): 10 mM)?
**A.** IRF Lucia reporter activity (RAW-Dual [1]; [4]): 0.948; IRF Lucia reporter activity (RAW-Dual [1]; agonist: LPS (TLR4) 0.1 ug/mL): 1.18

**Q.** Which “IRF Lucia reporter activity” value (RAW-Dual [2]; [5]) does the source give for `O=C1CCC(N2C(=O)c3ccccc3C2=O)C(=O)N1` (stereo not given) here?
**A.** 1.08

**Q.** What does the source list for `O=C1CCC(N2C(=O)c3ccccc3C2=O)C(=O)N1` (stereo not given) (library stock concentration (final ~1000-fold dilution): 10 mM)?
**A.** IRF Lucia reporter activity (RAW-Dual [1]; [4]): 1; IRF Lucia reporter activity (RAW-Dual [1]; agonist: LPS (TLR4) 0.1 ug/mL): 0.911

**Q.** Which “IRF Lucia reporter activity” value (RAW-Dual [2]; [5]) does the source give for `O=C1C2C3CCC(C3)C2C(=O)N1CC1CCCCC1CN1CCN(c2nsc3ccccc23)CC1` (stereo not given) here?
**A.** 1

**Q.** How did the “IRF Lucia reporter activity” value (RAW-Dual [1]; [4]) turn out when `O=C1C2C3CCC(C3)C2C(=O)N1CC1CCCCC1CN1CCN(c2nsc3ccccc23)CC1` (stereo not given) (library stock concentration (final ~1000-fold dilution): 10 mM) was run?
**A.** 1

**Q.** And the “IRF Lucia reporter activity” value (RAW-Dual [1]; agonist: LPS (TLR4) 0.1 ug/mL)?
**A.** 0.938

**Q.** Which results are given for `CN(C)CCCn1cc(C2=C(c3c[nH]c4ccccc34)C(=O)NC2=O)c2ccccc21` (library stock concentration (final ~1000-fold dilution): 10 mM)?
**A.** IRF Lucia reporter activity (RAW-Dual [3]; [4]): 0.0231; IRF Lucia reporter activity (RAW-Dual [3]; agonist: LPS (TLR4) 0.1 ug/mL): 0.0782

**Q.** `CN(C)CCCn1cc(C2=C(c3c[nH]c4ccccc34)C(=O)NC2=O)c2ccccc21` was tested. Which “IRF Lucia reporter activity” value (RAW-Dual [2]; [6]) did it give?
**A.** 0.0773

From the supplement of paper PMC10037445
